Where a name gives a salt, the structure may show the parent alone. ± gives the standard error. Screen size: about 1,300 compounds; about 75 (6%) showed an effect of 50% or more. This is one part of the list.

The record followed here is the supplement of paper PMC8007513.

In the experiment the test system is Trichoderma virens ATCC 9645. The experiment is described as follows: growth yield (OD600) relative to untreated control; higher = less growth inhibition. The conditions noted are these: compound concentration: 100 uM. A digest of the protocol: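 Library compounds (100 μM final), with or without a co-applied biocide (200 ng ml^−1), were added to 100 μl aliquots of Trichoderma virens ATCC 9645 spores at 15,000 spores ml^−1 in potato dextrose broth. Cultures were grown at 30 °C in 96-well plates, and OD600 was measured at 40 h and 72 h. Each growth value is a mean of duplicate screens, expressed relative to the control with neither agent.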

For `O=C(O)CCCC[C@@H]1SC[C@@H]2NC(=O)N[C@@H]21` [Biotin], the growth yield stood at 95.6% (40 h) and 98.2% (72 h).
For `COCC(=O)Nc1c(I)c(C(=O)NCC(O)CO)c(I)c(C(=O)N(C)CC(O)CO)c1I` (stereo unspecified) [Iopromide] the same measures were 98.8 ± 3.2% and 95.5 ± 1.1%.
The matching figures for `CC1COc2c(N3CCN(C)CC3)c(F)cc3c(=O)c(C(=O)O)cn1c23` (stereo unspecified) [Ofloxacin]: 95.3 ± 0.95% and 95.9 ± 1.7%.
`C[C@H](CCC(=O)O)[C@H]1CC[C@H]2[C@@H]3CC[C@@H]4C[C@H](O)CC[C@]4(C)[C@H]3CC[C@]12C` [Lithocholic acid]: the growth yield reads like this: (40 h) 104 ± 14%; (72 h) 96.4 ± 9.8%.
With `CC(=O)SCC(Cc1ccccc1)C(=O)NCC(=O)OCc1ccccc1` (stereo unspecified) [Racecadotril], the growth yield by setting is: (40 h) 105 ± 2.9%; (72 h) 105 ± 2.4%.
The matching figures for `COC(=O)C1=C(C)NC(C)=C(C(=O)OC(C)C)C1c1cccc2nonc12` (stereo unspecified) [Isradipine]: 108 ± 6.5% and 101 ± 2.6%.
On to `CN1CCC(OC(c2ccccc2)c2ccccc2)CC1` [Diphenylpyraline hydrochloride], for which the growth yield by setting is: (40 h) 94.2 ± 4%; (72 h) 93.3 ± 1.5%.
As for `O=C(Oc1cccc2cccnc12)c1ccccc1` [Benzoxiquine], the growth yield reads like this: (40 h) 57.3 ± 2.7%; (72 h) 66.9 ± 2.3%.
For `Clc1ccc(Nc2nnc(Cc3ccncc3)c3ccccc23)cc1` [Vatalanib] the same measures were 91.3 ± 4.3% and 94.7 ± 6.4%.
For `CN(C/C=C/C#CC(C)(C)C)Cc1cccc2ccccc12` [Terbinafine] the same measures were 2.7 ± 0.16% and 2.52%.
Regarding `O=c1[nH]cnc2c1ncn2[C@H]1CC[C@@H](CO)O1` [Didanosine], the growth yield by setting is: (40 h) 61.95 ± 0.32%; (72 h) 57.58 ± 0.32%.
For the compound `Fc1ccc([C@@H]2CCNC[C@H]2COc2ccc3c(c2)OCO3)cc1` [Paroxetine Hydrochloride], the growth yield (40 h) was found to be 91.7 ± 3% and the growth yield (72 h) amounted to 101 ± 3.6%.
The matching figures for `Nc1nc(O)c2ncn(CCC(CO)CO)c2n1` [Penciclovir]: 100 ± 1.9% and 101.6 ± 0.73%.
For the compound `NC(CO)C(=O)NNCc1ccc(O)c(O)c1O` (stereo unspecified) [Benserazide hydrochloride], the growth yield reads like this: (40 h) 85.3 ± 3.3%; (72 h) 80.3 ± 5.7%.
The compound `CN(C)CCCN1c2ccccc2CCc2ccccc21` [Imipramine hydrochloride] came in with a growth yield (40 h) of 97.2 ± 3.8% and a growth yield (72 h) of 97.3 ± 3.6%.
Take `C[C@H]1COc2c(N3CCN(C)CC3)c(F)cc3c(=O)c(C(=O)O)cn1c23` [Levofloxacin]: the growth yield is 99.4 ± 5.7% (40 h) and 96.6 ± 3.9% (72 h).
The compound `NCCC[C@H](N)CC(=O)N[C@H]1CNC(=O)[C@H]([C@H]2C[C@H](O)NC(N)=N2)NC(=O)/C(=C/NC(N)=O)NC(=O)[C@H](CO)NC(=O)[C@H](CO)NC1=O` [Viomycin sulfate] yielded a growth yield (40 h) of 95.5 ± 3% and a growth yield (72 h) of 87.6 ± 0.94%.
On to `O=C1c2cccc3c2[C@H](CCC3)CN1[C@@H]1CN2CCC1CC2` [Palonosetron hydrochloride], for which the growth yield worked out at 103 ± 6% (40 h) and 99 ± 4.2% (72 h).
For `NCC[C@H](O)C(=O)N[C@@H]1C[C@H](N)[C@@H](O[C@H]2O[C@H](CN)[C@@H](O)[C@H](O)[C@H]2O)[C@H](O)[C@H]1O[C@H]1O[C@H](CO)[C@@H](O)[C@H](N)[C@H]1O` [Amikacin hydrate] the same measures were 99.3 ± 3.3% and 100 ± 2.9%.
Take `CC(C)CN(C[C@@H](O)[C@H](Cc1ccccc1)NC(=O)O[C@H]1CO[C@H]2OCC[C@H]21)S(=O)(=O)c1ccc(N)cc1` [Darunavir]: the growth yield (40 h) is 108 ± 1.8% and the growth yield (72 h) was 111 ± 2.6%.
As for `NC1CCN(c2nc3c(cc2F)c(=O)c(C(=O)O)cn3-c2ccc(F)cc2F)C1` (stereo unspecified) [Tosufloxacin hydrochloride], the growth yield reads like this: (40 h) 95.9 ± 11%; (72 h) 94.7 ± 11%.
Regarding `COC(=O)Nc1nc2cc([S+]([O-])c3ccccc3)ccc2[nH]1` (stereo unspecified) [Oxfendazol], the growth yield reads like this: (40 h) 98.16 ± 0.64%; (72 h) 98.17 ± 0.42%.
For the compound `COc1ccccc1OCC(O)COC(N)=O` (stereo unspecified) [Methocarbamol], the growth yield by setting is: (40 h) 104 ± 2.1%; (72 h) 106 ± 1.1%.
For `Nc1ccn([C@@H]2CS[C@H](CO)O2)c(=O)n1` [Lamivudine] the same measures were 103.7 ± 0.16% and 101 ± 1.9%.
The matching figures for `Cc1cc(N)c2ccccc2[n+]1CCCCCCCCCC[n+]1c(C)cc(N)c2ccccc21` [Dequalinium dichloride]: 2.54 ± 1.6% and 2.2 ± 1.4%.
For `CO/N=C(\C(=O)N[C@@H]1C(=O)N2C(C(=O)OC(C)OC(C)=O)=C(COC(N)=O)CS[C@H]12)c1ccco1` (stereo partly specified) [Cefuroxime axetil] the same measures were 97.05 ± 0.16% and 96.5 ± 1.7%.
Take `COc1c(N2CCNC(C)C2)c(F)cc2c(=O)c(C(=O)O)cn(C3CC3)c12` (stereo unspecified) [Gatifloxacin]: the growth yield (40 h) amounted to 95.3 ± 0.95% and the growth yield (72 h) came to 94.4 ± 3.4%.
For `O=C(c1ccccc1)c1ccc2n1CCC2C(=O)O` (stereo unspecified) [Ketorolac tromethamine] the same measures were 94 ± 2.2% and 89.8 ± 2.1%.
Regarding `CCOC(=O)[C@@](C)(N)Cc1ccc(O)c(O)c1` [Methyldopate hydrochloride], the growth yield is, setting by setting: (40 h) 104 ± 5.2%; (72 h) 97.85 ± 0.94%.
Turning to `CN1Cc2c(N)cccc2C(c2ccccc2)C1` (stereo unspecified) [Nomifensine maleate], the growth yield runs as follows: (40 h) 99.8 ± 5.7%; (72 h) 102 ± 4%.
Turning to `CC(C)(O)c1ccccc1CC[C@@H](SCC1(CC(=O)O)CC1)c1cccc(/C=C/c2ccc3ccc(Cl)cc3n2)c1` [Montelukast], the growth yield runs as follows: (40 h) 114 ± 2.1%; (72 h) 108 ± 2.4%.
For the compound `c1ccc(CNc2ncnc3nc[nH]c23)cc1` [Aminopurine, 6-benzyl], the growth yield is, setting by setting: (40 h) 107 ± 1.4%; (72 h) 107 ± 1.8%.
For `C=CCSCC1Nc2cc(Cl)c(S(N)(=O)=O)cc2S(=O)(=O)N1` (stereo unspecified) [Althiazide] the same measures were 102 ± 2.2% and 97.4 ± 1.8%.
